# The other results are listed elsewhere or left out. The data describe in vitro nicking of single-stranded DNA by Rep domains (1 h at 37 °C, 3 µM enzyme); the outer parts of the 90-letter strands are left off. Numbers give uncut DNA relative to the enzyme-free pool, as log2; the lower, the more was cut; hits are not called. Shares of all reads are compared; values above 0 arise when much of the pool is cut.
# How the values were obtained:
# Experiment in all cases: uncleaved DNA left, log2 of reads against the no-enzyme library (log2 ratio); higher = less cleavage (more negative = more Rep cleavage of the k-mer); sequences stand for … in CTCGTCCG…ACCGGAGA
# [1] = system: T1, Rep nickase domain of Muscovy duck circovirus
# T1 sequence (residues 1-111, tag not shown): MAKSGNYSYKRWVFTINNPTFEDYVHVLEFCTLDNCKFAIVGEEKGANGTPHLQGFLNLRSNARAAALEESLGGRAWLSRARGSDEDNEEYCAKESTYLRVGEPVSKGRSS
# Description: (§1)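 A pool of 90-nt single-stranded DNAs with seven random bases just before the constant AC of the nick site (name = the seven bases) was cut by 3 µM recombinant His6-SUMO-tagged Rep nickase domain (300 nM DNA, 50 mM HEPES pH 8.0, 50 mM NaCl, 1 mM MnCl2, 1 h, 37 °C, three replicates). Uncut DNA was amplified and sequenced.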
# [2] = system: T2, Rep nickase domain of banana bunchy top virus
# T2 sequence (residues 1-94, tag not shown): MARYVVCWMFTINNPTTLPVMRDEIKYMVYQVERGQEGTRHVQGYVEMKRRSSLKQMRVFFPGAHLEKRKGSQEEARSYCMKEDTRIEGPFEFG
# Description: as §1
# [3] = system: T3, Rep nickase domain of cabbage leaf curl virus
# T3 sequence (residues 1-116, tag not shown): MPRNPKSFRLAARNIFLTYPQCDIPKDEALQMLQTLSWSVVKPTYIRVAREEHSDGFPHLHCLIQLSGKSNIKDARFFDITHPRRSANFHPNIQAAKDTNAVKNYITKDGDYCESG
# Description: as §1
# [4] = system: T4, Rep nickase domain of chickpea chlorotic dwarf virus
# T4 sequence (residues 1-124, tag not shown): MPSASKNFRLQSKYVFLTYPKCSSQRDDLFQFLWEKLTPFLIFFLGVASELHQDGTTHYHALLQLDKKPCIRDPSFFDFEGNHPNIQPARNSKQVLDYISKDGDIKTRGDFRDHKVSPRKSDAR
# Description: as §1
# [5] = system: T5, Rep nickase domain of faba bean necrotic yellows virus
# T5 sequence (residues 1-98, tag not shown): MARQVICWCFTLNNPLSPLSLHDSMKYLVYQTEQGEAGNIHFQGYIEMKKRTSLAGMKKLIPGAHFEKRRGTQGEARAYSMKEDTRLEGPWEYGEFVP
# Description: as §1
# [6] = system: T6, Rep nickase domain of maize striate mosaic virus
# T6 sequence (residues 1-117, tag not shown): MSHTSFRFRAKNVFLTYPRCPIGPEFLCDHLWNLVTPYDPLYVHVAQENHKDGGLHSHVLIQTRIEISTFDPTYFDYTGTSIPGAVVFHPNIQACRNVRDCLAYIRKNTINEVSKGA
# Description: as §1
# [7] = system: T7, Rep nickase domain of porcine circovirus 2
# T7 sequence (residues 2-116, tag not shown): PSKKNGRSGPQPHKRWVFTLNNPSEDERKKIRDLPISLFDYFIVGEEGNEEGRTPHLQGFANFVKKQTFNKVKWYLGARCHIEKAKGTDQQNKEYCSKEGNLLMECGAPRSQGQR
# Description: as §1
# [8] = system: T8, Rep nickase domain of tomato golden mosaic virus
# T8 sequence (residues 1-124, tag not shown): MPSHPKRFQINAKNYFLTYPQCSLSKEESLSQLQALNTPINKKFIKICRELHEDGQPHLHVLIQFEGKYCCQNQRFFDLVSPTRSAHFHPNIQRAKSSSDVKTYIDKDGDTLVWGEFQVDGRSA
# Description: as §1
# [9] = system: T9, Rep nickase domain of tomato yellow leaf curl virus
# T9 sequence (residues 1-136, tag not shown): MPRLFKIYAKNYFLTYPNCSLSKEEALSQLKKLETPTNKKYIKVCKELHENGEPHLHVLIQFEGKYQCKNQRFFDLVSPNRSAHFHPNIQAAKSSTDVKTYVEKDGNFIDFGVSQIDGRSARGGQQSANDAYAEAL
# Description: as §1
# [10] = system: T10, Rep nickase domain of wheat dwarf virus
# T10 sequence (residues 1-137, tag not shown): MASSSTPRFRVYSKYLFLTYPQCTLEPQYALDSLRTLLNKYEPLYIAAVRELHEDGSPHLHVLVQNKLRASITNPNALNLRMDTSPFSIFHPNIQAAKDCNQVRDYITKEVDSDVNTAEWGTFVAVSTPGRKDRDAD
# Description: as §1
Sequence,uncleaved DNA left (log2) [1],uncleaved DNA left (log2) [2],uncleaved DNA left (log2) [3],uncleaved DNA left (log2) [4],uncleaved DNA left (log2) [5],uncleaved DNA left (log2) [6],uncleaved DNA left (log2) [7],uncleaved DNA left (log2) [8],uncleaved DNA left (log2) [9],uncleaved DNA left (log2) [10]
ACCCTTT,-0.0907,-0.0364,-0.205,-2.02,0.0512,-0.637,-0.573,-0.0197,-0.0416,-0.133
GACGGGG,0.135,0.106,0.74,1.05,0.0566,1.71,0.196,0.0933,0.00537,0.14
TCCGTCA,0.0113,-0.052,0.142,-0.336,-0.0393,-0.03,-0.0268,-0.0296,-0.0157,-0.119
ATGAGGT,-0.0481,-0.0902,0.276,1,-0.0601,1.23,0.0615,-0.0451,-0.143,-0.11
TGCAGTC,-0.0206,-0.0812,-0.0701,-0.124,0.00331,-0.681,0.0449,-0.0717,-0.115,-0.127
GATGGGT,0.117,0.0499,0.269,0.945,0.0519,1.3,-0.00431,0.11,-0.0269,0.0721
CATGGAT,0.0265,-0.056,0.147,1.51,-0.0949,1.78,0.112,-0.00267,-0.157,-0.126
GGACGTG,-0.0337,-0.0167,0.656,1.41,0.038,1.87,0.112,-0.0688,-0.0192,0.0369
GGGGCCC,-0.126,0.0737,0.83,1.81,-0.00318,2.16,0.179,-0.0742,0.00156,0.0251
CGAGCTT,-0.0126,0.0958,0.127,-0.552,-0.0807,0.629,-0.311,-0.0694,-0.02,0.182
GACTTGT,-0.0922,-0.052,0.194,0.616,-0.0264,0.921,-2.9,-0.0325,0.0869,0.128
TTGGTTA,0.000127,0.00126,0.124,-0.384,-0.0453,0.239,-0.115,-0.0536,0.0966,-0.216
ATCCAAA,-0.0908,-0.0324,-0.0172,-0.0321,0.0737,-0.656,0.0686,0.0558,-0.0774,0.116
ATGAAAT,-0.00124,-0.000755,0.0648,0.235,0.0035,0.27,-0.236,0.0704,-0.0264,0.0468
AAGGGAA,0.056,0.0781,0.36,1.17,0.0857,1.36,0.0998,0.0745,-0.127,-0.0393
AATCGTT,-0.246,-0.0898,-0.684,-2.84,0.00866,-1.01,-3.39,-0.189,-0.238,-0.165
GACACAC,-0.0323,-0.00383,0.194,0.623,-0.0565,0.351,0.129,0.0222,0.116,0.056
TTACATT,0.0492,0.0293,-0.155,-2.13,0.0947,0.594,-0.0921,-0.0309,0.123,-0.0577
TGCCCGA,0.055,-0.0275,0.0181,-0.0175,0.0106,-0.616,0.0968,0.00508,0.0542,0.0876
GAGTAAT,-0.695,-2.41,0.232,0.45,-2.45,1.48,-3.24,-0.1,0.108,0.166
TCCGTTG,0.117,-0.0691,-0.223,-0.467,-0.0176,-0.389,0.212,-0.111,0.00552,0.0776
TCCAGGC,0.161,0.0407,0.285,0.452,0.062,-0.169,0.109,-0.00262,0.0652,-0.0565
TAGCGGG,-0.0394,0.0332,-0.0355,0.26,-0.0671,0.185,0.108,0.0486,-0.0523,-0.0393
TCTTATT,-3.37,-2.93,-1.08,-2.84,-0.225,-0.7,-3.98,-0.307,-0.104,-1.23
GACAGCT,-0.0153,-0.0708,0.00296,-0.864,-0.024,-0.211,-0.194,0.0064,-0.0224,-0.02
TGACATC,0.0792,0.00495,0.632,1.55,-0.0502,1.81,0.0617,-0.162,-0.00141,0.171
CAGGTGA,0.153,0.0688,0.118,0.115,0.0537,-0.0356,0.0141,0.14,-0.0237,0.0638
GTGTGGT,-0.08,-0.0805,0.328,0.762,0.00634,1.3,-1.39,0.105,0.0268,0.0543
GATCAGG,0.061,0.0625,0.425,1.17,-0.0695,1.13,0.23,0.0845,0.053,0.0459
AAATAGG,0.0312,-0.0235,0.000682,0.674,-0.0191,-0.18,-0.0157,-0.00611,-0.0841,-0.0275
